Reference: PubChem BioAssay AID686971 (National Center for Advancing Translational Sciences (NCATS), 2013)
About 7,500 (2.1%) of roughly 360,000 compounds were called active. The inconclusive results got no clear call from the source; some entries with a clear call stand among them for comparison. Calls follow the shape of the dose curve; as a rule, active = well fitted cell-killing curve with a large enough effect; inconclusive = small, poorly fitted or top-dose-only effect, or effect the other way, or another doubt; inactive = no such curve, though single readings can be large or run the other way. No potency is given beside an inconclusive call; the fits are too rough.

Test: qHTS for induction of synthetic lethality in tumor cells producing 2HG: qHTS for the HT-1080-IDH1KD cell line;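 as to activity, negative = toxicity: 0% = DMSO wells and -100% = cell-free medium wells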
Conditions: HT-1080 IDH1 knockdown viability, ATP luminescence, 48 h; activity, negative = toxicity: at 46.1 µM (top of the series) unless noted
Procedure, shortened: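 Viability of IDH1-knockdown HT-1080 fibrosarcoma cells was assessed by CellTiter-Glo after 48 h at 37 °C with titrated compound; concentration-effect curves were classified by fit quality and response size.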
Potency is read from the fitted curve at half-maximal effect; tags tell the direction and shape of the fitted curve.

| SMILES | activity, negative = toxicity | Potency |
| --- | --- | --- |
| CC(C)Cc1nc2oc3c(NCc4cccnc4)ncnc3c2c2c1CCC2 | inactive: -15% | – |
| C=CCNc1nc(NCc2ccccc2)c(C#N)c2c1CN(C)CC2 | – | inconclusive [cytotoxic, single point] |
| Cc1c(C(=O)NCc2ccoc2)oc2ccc3c(c12)C(=O)CC(C)(C)O3 | – | inconclusive [cytotoxic, full curve] |
| CCN(CC)S(=O)(=O)c1ccc(N2CCOCC2)c(NC(=O)c2[nH]c(C)c(C(C)=O)c2C)c1 | – | inconclusive [cytotoxic, single point] |
| COc1ccc(C(C)=O)cc1CSc1nnc(Nc2ccc(C)cc2)s1 | – | inconclusive [cytotoxic, single point] |
| CCOc1ccc(Br)cc1S(=O)(=O)Nc1ncn[nH]1 | inactive: 0.0158% | – |
| COc1cc(/C=C/c2nc3ccccc3c(=O)[nH]2)ccc1O | – | inconclusive [cytotoxic, single point] |
| CC1=C(C(=O)Nc2ccccc2)C(c2ccco2)C(C#N)=C(SCC(N)=O)N1 (configuration not stated) | – | inconclusive [cytotoxic, single point] |
| Cc1cc(C(F)F)n2nc(C(=O)Nc3ccc(S(=O)(=O)NC45CC6CC(CC(C6)C4)C5)cc3)nc2n1 | – | inconclusive [cytotoxic, single point] |
| Cc1cccc(-n2c(C)nc3cc(C(=O)NCCN4CCOCC4)ccc32)c1 | inactive: 1.66% | – |
| Cc1cc(NC(=O)C(C)SCC(=O)Nc2cc(Cl)ccc2N2CCN(C)CC2)no1 (configuration not stated) | inactive: 2.49% | – |
| COc1cc(NC(=O)c2ccccc2)c(OC)cc1NC(=O)CSc1[nH]c(=O)cc(C)c1C#N | – | inconclusive [cytotoxic, full curve] |
| CN(Nc1cccc(Cl)c1)c1cccc(Cl)c1 | – | inconclusive [cytotoxic, single point] |
| C(#Cc1ccccc1)C[N+]1(CC#Cc2ccccc2)CCCC1 | – | inconclusive [cytotoxic, partial curve] |
| COC(=O)C(OC(=O)c1ccccc1)C(C)Br (configuration not stated) | inactive: 8.82% | – |
| CCCCn1c(NC(=O)c2ccccc2Cl)c(C#N)c2nc3ccccc3nc21 | – | active: 9.2 µM |
| Cc1csc(NC(=O)CSc2ncnc3c2cnn3-c2ccccc2Cl)n1 | – | inconclusive [cytotoxic, single point] |
| Cc1ccc2nc(C3CCCCC3)c(Cc3cccc(F)c3)n2c1 | – | inconclusive [cytotoxic, single point] |
| COc1ccc(OC(=O)CCN2C(=O)C3C4C=CC(C4)C3C2=O)cc1 (configuration not stated) | – | inconclusive [cytotoxic, single point] |
| Cc1cc(C)cc(-n2c(C)cc(/C=N/NC(=O)c3cccc([N+](=O)[O-])c3C)c2C)c1 | – | inconclusive [cytotoxic, single point] |
| O=C(Nc1ccnn1C1CCN(Cc2ccc(O)c(Cl)c2)CC1)C1CCCC1 | inactive: -0.434% | – |
| O=C(Cn1c(=O)n(CC(=O)NCc2ccccc2)c2ccccc21)NCc1ccccc1 | – | inconclusive [cytotoxic, single point] |
| CCN(c1cccc(C)c1)S(=O)(=O)c1ccc(-c2cc(C)no2)s1 | – | inconclusive [cytotoxic, full curve] |
| COC(=O)C(=Cc1ccc(OCc2ccc([N+](=O)[O-])cc2)c(OC)c1)C(=O)OC | inconclusive: -25.4% [cytotoxic] | – |

| SMILES | activity, negative = toxicity | Potency |
| --- | --- | --- |
| Cc1cc(C(=O)CSc2nc(N)cc(=O)[nH]2)c(C)n1-c1cccc(F)c1 | – | inconclusive [cytotoxic, partial curve] |
| COc1ccc(Cl)cc1Nc1nc(N)c2ccccc2n1 | – | inconclusive [cytotoxic, single point] |
| Cc1ccnc(NS(=O)(=O)c2ccc(N3C(=O)c4c(Cl)c(Cl)c(Cl)c(Cl)c4C3=O)cc2)n1 | – | inconclusive [rising, single point] |
| CS(=O)(=O)Nc1ccc(C2=NN(S(=O)(=O)c3ccc(F)cc3)C(c3ccco3)C2)cc1 (configuration not stated) | – | inconclusive [cytotoxic, single point] |
| COc1ccc(OC)c(NC(=O)NNC(=O)COc2ccc([N+](=O)[O-])cc2)c1 | inactive: -14% | – |
| O=[N+]([O-])c1ccc(N/N=C/c2cccc(O)c2)cc1 | – | inconclusive [cytotoxic, partial curve] |
| CCCCc1ccc(S(=O)(=O)NC(=O)C2(C)CCN2C(=O)c2ccccc2)cc1 (configuration not stated) | inactive: 11% | – |
| CCn1c2ccccc2c2cc(NC(=O)CSc3nnc(-c4ccccc4OC)n3N)ccc21 | – | inconclusive [cytotoxic, single point] |
| O=C(C=Cc1ccccc1)CC(c1ccccc1)N1CCOCC1 (configuration not stated) | – | inconclusive [cytotoxic, full curve] |
| CCN(CC)CCOC(=O)c1ccc(NC(=O)c2ccc(Cl)c(S(=O)(=O)N3CCCCCC3)c2)cc1 | – | inconclusive [cytotoxic, single point] |
| C[C@]1(O)CC(=O)C=C[C@H]1Nc1ccccc1 | – | inconclusive [cytotoxic, single point] |
| Cn1nc2c3ccccc3n(Cc3ccccc3)c2nc1=S | inactive: -2.37% | – |
| N#Cc1ccc(CSC2=NCCN2)cc1 | inconclusive: -30.6% [cytotoxic] | – |
| CCOc1cc(C(=O)Nc2ccc3c(c2)OCO3)ccc1OC(F)F | inactive: -14.3% | – |
| Cn1nc(-c2ccc(Cl)cc2)c2cc(C(=O)NCCCN3CCCC3)sc21 | – | inconclusive [cytotoxic, partial curve] |
| COc1ccc(C(=O)NC2CCCc3ccccc32)c(OC)c1OC (configuration not stated) | – | inconclusive [cytotoxic, partial curve] |
| Cc1ccc(-c2csc(C(O)c3cccc(Cl)c3)n2)cc1C (configuration not stated) | – | inconclusive [cytotoxic, single point] |
| O=C(c1ccco1)N1CCN(Cc2cc(=O)c(OCc3ccccc3Cl)co2)CC1 | inactive: 15.4% | – |
| Cc1cc(OCC(=O)NNC(=O)c2cnccn2)cc(C)c1Cl | – | inconclusive [cytotoxic, partial curve] |
| Cc1ccc(O)c(CNCCNCc2cc(C)ccc2O)c1 | – | inconclusive [cytotoxic, single point] |
| O=C(COc1ccc(Cl)cc1Br)NCC(c1ccco1)N1CCCC1 (configuration not stated) | inactive: -13.2% | – |
| CC(=O)c1ccc(N2CCN(C(=O)c3ccc(Cn4c(=S)[nH]c5ccc(N6CCOCC6)cc5c4=O)cc3)CC2)cc1 | inactive: -17.5% | – |
| CCn1nc(C)cc1C(=O)Sc1cccc(Cl)c1 | – | inconclusive [cytotoxic, single point] |
| O=C(NC(c1ccccc1)c1cnccn1)C1CCN(CCOc2ccc(Cl)cc2Cl)CC1 (configuration not stated) | – | inconclusive [cytotoxic, single point] |

| SMILES | activity, negative = toxicity | Potency |
| --- | --- | --- |
| O=C(NNS(=O)(=O)c1ccc(F)cc1)c1cc2ccccc2cc1O | inactive: -1.12% | – |
| OCCCNc1c2ccccc2nc2ccccc12 | – | active: 11.6 µM |
| COc1ccc(-c2nc3c(Cl)cc(C(F)(F)F)cn3c2Cc2cccc(Cl)c2)cc1OC | – | inconclusive [cytotoxic, single point] |
| O=C(CNC(=O)c1ccco1)N/N=C/c1cccs1 | inactive: 19.1% | – |
| COc1ccc(C2C3=C(CC(C)(C)CC3=O)Oc3ncn(Cc4ccco4)c(=N)c32)cc1 (configuration not stated) | – | inconclusive [cytotoxic, single point] |
| Cc1ccc(C)c(Nc2cc(C)nc3ccccc23)c1 | – | inconclusive [cytotoxic, single point] |
| O=C(NC1=CC(=O)c2ccccc2C1=O)c1ccccc1 | – | active: 7.31 µM |
| CNc1nc(SCc2ccccc2Cl)nc2c1CCCC2 | – | active: 32.6 µM |
| Cc1cccnc1NC(=O)CN1C(=O)c2ccccc2S1(=O)=O | inactive: 7.26% | – |
| Cc1ccc(NC(=O)c2ccc3c(=O)n4c(nc3c2)CCC4)cc1S(=O)(=O)N(C)C | inactive: 10.2% | – |
| O=C1C(=O)N(Cc2ccccc2)C(=O)N1CCOc1ccccc1 | – | inconclusive [cytotoxic, single point] |
| Cc1cc(C(=O)NNc2ccc(Cl)cc2)no1 | – | active: 2.59 µM |
| O=C(Cn1c(NCCO)nc2ccccc21)c1ccc(Cl)cc1Cl | – | active: 20.6 µM |
| CC(CC(=O)Nc1ccc2c(c1)c(=O)n(C)n2-c1ccccc1F)c1ccccc1 (configuration not stated) | – | active: 4.11 µM |
| Cc1cc(C)n(CC(=O)N/N=C/c2cccs2)n1 | inactive: 19.9% | – |
| COc1ccc(COC(=O)c2ccc(S(=O)(=O)N3CCCCC3)cc2)cc1OC | inactive: -1.29% | – |
| COCc1cc(C)nc(SCC(=O)Nc2ccc3[nH]c(=O)[nH]c3c2)c1C#N | – | inconclusive [cytotoxic, single point] |
| CCN(CC(=O)NC(C)(C)C)C(=O)c1ccccc1SCC(=O)NC1CCCCCCC1 | inactive: -0.0715% | – |
| COc1ccccc1C(CC(=O)c1ccccc1)C(=O)c1ccccc1 (configuration not stated) | – | inconclusive [cytotoxic, single point] |
| COc1cc(C2c3cc4c(cc3OC(NNC(N)=S)C2C)OCO4)cc(OC)c1OC (configuration not stated) | – | inconclusive [cytotoxic, full curve] |
| CN1CC2(Cc3c1ccc1ccccc31)C(=O)OC(C)(C)OC2=O | – | inconclusive [cytotoxic, single point] |
| O=C(c1ccc(Oc2ccc(C(F)(F)F)cc2[N+](=O)[O-])cc1)N1CCOCC1 | inactive: -2.73% | – |
| CCCCCCCCN1C(=O)[C@H](CC(=O)NCc2ccccc2)C[C@@]2(C(=O)OCC)CCCC=C12 | – | inconclusive [cytotoxic, single point] |
| CC1CCC(C(C)C)C(OC(=O)C[n+]2cc(-c3ccc(Cl)cc3)n3c2CCCCC3)C1 (configuration not stated) | – | active: 20.6 µM |
